# Assay results as given in PubChem BioAssay AID588342 (National Center for Advancing Translational Sciences (NCATS), 2011).
# Among all 360,000 compounds or so, about 25,000 (6.9%) were called active. The shares of active, inactive and inconclusive entries below differ from those in the screen. The call rests on the fitted dose curve; in most records, active means well fitted inhibition curve with a large enough effect; inconclusive means small, poorly fitted or top-dose-only effect; inactive means flat fitted curve, though single readings scatter. Where the call is inconclusive, the potency comes from a doubtful curve fit.
# Molecular target: Luciferin 4-monooxygenase (Photinus pyralis) (UniProt P08659)
# Assay: qHTS profiling assay for firefly luciferase inhibitor/activator using purifed enzyme and Km concentrations of substrates (counterscreen for miR-21 project); further: nearly all actives have a fitted effect of over 55% in size;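 on activity change, negative = inhibition: plate controls were vehicle for no effect and reference inhibitor for full effect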
# Conditions: purified FLuc, luminescence inhibition; series mostly up to 57.5 µM; activity change, negative = inhibition: at the top concentration
# Method in brief: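 Purified P. pyralis luciferase (10nM final) with 10uM D-luciferin and 10uM ATP (Km levels) in 50mM Tris acetate pH 7.5, 10mM Mg acetate, 0.01% Tween-20, 0.05% BSA; qHTS 6-point titration, ~60 µM downward; luminescence read.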
# Potency means the concentration at half of the fitted maximal effect; tags describe the fitted curve by direction and shape.
# Chain of UniProt P08659 (P08659 whole entry, looked up): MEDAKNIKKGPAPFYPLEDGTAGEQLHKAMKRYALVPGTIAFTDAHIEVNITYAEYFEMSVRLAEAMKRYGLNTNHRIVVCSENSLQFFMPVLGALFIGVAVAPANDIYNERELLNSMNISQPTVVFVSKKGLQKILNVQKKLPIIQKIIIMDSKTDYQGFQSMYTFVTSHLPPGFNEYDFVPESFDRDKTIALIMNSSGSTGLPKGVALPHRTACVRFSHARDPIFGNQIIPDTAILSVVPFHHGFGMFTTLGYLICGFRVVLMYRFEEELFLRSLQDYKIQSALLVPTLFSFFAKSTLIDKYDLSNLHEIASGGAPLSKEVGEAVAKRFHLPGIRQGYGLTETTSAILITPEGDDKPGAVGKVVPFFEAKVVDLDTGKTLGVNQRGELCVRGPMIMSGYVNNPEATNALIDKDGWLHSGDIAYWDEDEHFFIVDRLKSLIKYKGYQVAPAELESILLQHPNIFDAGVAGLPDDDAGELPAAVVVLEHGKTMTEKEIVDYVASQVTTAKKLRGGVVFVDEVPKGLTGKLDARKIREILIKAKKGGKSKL
SMILES,Potency,"activity change, negative = inhibition"
CC[C@H](C)[C@@H](NC(=O)O[C@@H]1C(=O)c2cc(Br)ccc2O[C@H]1c1cccc(OC)c1)C(=O)OC,"inconclusive: 21.3 µM [inhibitor, partial curve, poor fit]",
O=C(O)CCC(=O)Nc1ccc(C(=O)OCC(=O)c2ccc(Cl)cc2)cc1,"inconclusive: 21.3 µM [inhibitor, single point]",
O=C(COC(=O)CNS(=O)(=O)c1ccc(Cl)cc1)NC1CCCCC1,,inactive: 2.96%
O=C(c1ccccc1)c1coc2ccc(O)c(Cl)c12,"inconclusive: 37.9 µM [inhibitor, single point]",
Cc1ccc(/C=N/N=C/c2ccc(C)s2)s1,active: 0.675 µM,
O=C(NC(=S)Nc1ccccc1[N+](=O)[O-])c1ccco1,"inconclusive: 21.3 µM [inhibitor, partial curve, poor fit]",
CCOC(=O)C1=C(O)/C(=C/c2cc(C)n(-c3ccccc3)c2C)N=C1C,"inconclusive: 7.57 µM [inhibitor, partial curve, poor fit]",
COc1cccc(-c2nc(CSCC(=O)N3CCc4ccccc43)c(C)o2)c1,"inconclusive: 1.2 µM [inhibitor, full curve, poor fit]",
N#CNC(=Nc1cccc(C(F)(F)F)c1)SCc1ccc(C(=O)O)cc1,"inconclusive: 26.9 µM [inhibitor, partial curve, poor fit]",
O=C(NCc1cc([N+](=O)[O-])ccc1O)c1cc(-c2ccncc2)nc2ccccc12,"inconclusive: 19 µM [inhibitor, partial curve, poor fit]",
CCc1cc(C(=O)Nc2nc(-c3ccccn3)cs2)sc1C,active: 12 µM,
CC1CCN(c2cc(N)c(Cl)cc2[N+](=O)[O-])CC1,"inconclusive: 23.9 µM [inhibitor, partial curve]",
COc1ccc(O)c(/C=C2/SC(=S)N(Cc3ccccc3)C2=O)c1,"inconclusive: 37.9 µM [inhibitor, partial curve, poor fit]",
Cc1ccc2c(CC(=O)N(Cc3ccc(Cl)cc3)Cc3ccco3)coc2c1,,inactive: -17.3%
Cc1oc(-c2ccc(Cl)cc2)nc1CSCC(=O)NCc1ccccc1Cl,"inconclusive: 15.1 µM [inhibitor, partial curve, poor fit]",
Cc1ccc(O)c(NC(=O)c2ccc3c(c2)C(=O)N(Cc2cccnc2)C3=O)c1,active: 1.9 µM,
COC(=O)Cc1c(C)c2ccc3c(c2oc1=O)CN(Cc1ccccc1OC)CO3,,inactive: -0.52%
COc1ccc(NC(=O)N2CCCC(c3nc(-c4ccc(OC)cc4)no3)C2)cc1 (stereo unspecified),"inconclusive: 30.1 µM [inhibitor, single point]",
Cc1ccc2nc(-c3ccc(O)c(O)c3)cn2c1,active: 3.38 µM,
Cc1oc(C)c2c(=O)cc(-c3ccc4c(c3)OCO4)cc(OC(=O)c3ccccc3Cl)c12,,inactive: -18.9%
CCn1cnc2cc(NCc3cccs3)ccc21,"inconclusive: 21.3 µM [inhibitor, partial curve]",
CCc1ccc(OS(=O)(=O)c2cn(C)c(=O)n(C)c2=O)cc1,,inactive: -17.9%
O=C(CN1CCCC1)N/N=C/c1ccc(-c2cccc(Cl)c2)o1,active: 12 µM,
COc1ccc(NC(=O)c2coc(C)c2)cc1,active: 23.9 µM,

SMILES,Potency,"activity change, negative = inhibition"
C/C(=N\NC(=O)c1ccc(Br)cc1)c1cccc(NC(=O)c2cccnc2)c1,active: 12 µM,
O=C(N=Nc1c(O)[nH]c2ccccc12)c1ccc(CN2CCOCC2)cc1,"inconclusive: 16.9 µM [inhibitor, partial curve]",
Cc1ccc(OCc2cc(C(=O)Nc3ccccc3)oc2C)cc1,active: 19 µM,
Clc1ccc(-c2csc(NNC3=NCCCCC3)n2)cc1,"inconclusive: 21.3 µM [inhibitor, single point]",
CCc1ccc(-n2c(=O)c3sc4ccccc4c3n(Cc3cccc(F)c3)c2=O)cc1,,inactive: -0.754%
CC1SCC(=NOCc2c(Cl)cccc2Cl)CS1 (stereo unspecified),"inconclusive: 26.9 µM [inhibitor, partial curve, poor fit]",
COc1ccc(-c2nc3c4ccccc4[nH]c(=O)n3n2)cc1,active: 8.49 µM,
CCc1nnc(NC(=O)c2nc(SCc3ccccc3C)ncc2Cl)s1,"inconclusive: 15.1 µM [inhibitor, partial curve, poor fit]",
O=C(Nc1ccc(OC(F)F)cc1)c1ncc(Cl)c(Cl)c1Cl,"inconclusive: 42.6 µM [inhibitor, partial curve, poor fit]",
O=C(Nc1ccc(-c2nc3ncccc3o2)cc1)c1ccco1,active: 8.49 µM,
Cc1cc(-c2nnc3n2CCCCC3)c(C)n1-c1ccccc1,"inconclusive: 26.9 µM [inhibitor, partial curve, poor fit]",
COc1ccc(NC(=O)C2CCN(c3nc(C)nc4c3CCC4)CC2)cc1,,inactive: 20.9%
Cc1c(C)c2ccc(OCC(=O)N3CCN(c4ccccc4)CC3)cc2oc1=O,"inconclusive: 37.9 µM [inhibitor, partial curve, poor fit]",
COC(=O)CNC(=S)NC(=O)c1ccc(C(C)(C)C)cc1,active: 13.5 µM,
Cc1ccc(OCCNC(=O)c2ccc3ccccc3n2)cc1,"inconclusive: 37.9 µM [inhibitor, single point]",
Cc1nnc(NC(=O)c2ccc(Br)o2)s1,"inconclusive: 33.8 µM [inhibitor, single point]",
Cc1ccc(C#N)c(SCc2ccccc2F)n1,,inactive: -3.89%
CC(=O)Nc1ccc(NC(=O)C2CCCCC2C(=O)O)cc1 (stereo unspecified),,inactive: 0.786%
CCOC(=O)c1cc(NC(=O)N(C)C2CCCCC2)c(C)nc1C,,inactive: 2.5%
Cc1ccc(NC(=O)/C(=C\C=C\c2ccccc2)NC(=O)c2ccccc2)cc1,"inconclusive: 4.78 µM [inhibitor, partial curve, poor fit]",
CCN(CC1CCCO1)C(=O)c1cc(COc2ccc(OC)cc2Cl)on1 (stereo unspecified),"inconclusive: 30.1 µM [inhibitor, partial curve, poor fit]",
O=C(CCc1nnc(C2(c3ccc(Cl)cc3)CCC2)o1)N1CCCC1,active: 16.9 µM,
O=S(=O)(Nc1ccc2nc(-c3cccc(Cl)c3)oc2c1)c1ccccc1,"inconclusive: 15.1 µM [inhibitor, partial curve, poor fit]",
CCN(CC)c1ccc(/C=C/c2nc3ccccc3s2)cc1,active: 0.601 µM,

SMILES,Potency,"activity change, negative = inhibition"
O=C(NN1CCOCC1)c1cc(-c2ccccc2)nc2ccccc12,,inactive: 0.607%
O=C(c1ccccc1)c1cc(Cl)ccc1N1C(=O)C=CC1=O,"inconclusive: 8.49 µM [inhibitor, partial curve]",
COc1ccc(C=Nc2cccc3c(=O)[nH][nH]c(=O)c23)c2ccccc12,"inconclusive: 21.3 µM [inhibitor, partial curve]",
Cc1ccc(-c2cc3ccccc3nc2N)cc1,active: 3.01 µM,
CC(C)c1ccc(C2=C(O)c3ccccc3C(=O)C2=O)cc1,"inconclusive: 26.9 µM [inhibitor, single point]",
COc1ccc(N2CSC3=C(C#N)C(c4cc(OC)ccc4OC)CC(=O)N3C2)c(OC)c1 (stereo unspecified),"inconclusive: 13.5 µM [inhibitor, partial curve]",
CCc1ccc(NC(=O)Cn2c(=O)oc3cc(S(=O)(=O)N4CCCCCC4)ccc32)cc1,"inconclusive: 9.53 µM [inhibitor, partial curve]",
CC(C)Sc1ncc(Cl)c(C(=O)Nc2nnc(C(C)C)s2)n1,"inconclusive: 42.6 µM [inhibitor, partial curve, poor fit]",
O=C(Nc1ccc(O)cc1)c1ccc(NC(=O)c2ccco2)cc1,"inconclusive: 16.9 µM [inhibitor, partial curve, poor fit]",
COc1ccccc1C(=O)Nc1nnc(SCC(=O)Nc2ccc3c(c2)oc2ccccc23)s1,active: 1.9 µM,
COc1cccc(NC(=S)NCc2ccccc2)c1,"inconclusive: 26.9 µM [inhibitor, partial curve, poor fit]",
COc1cc(/C=N/n2c(-c3ccc4c(c3)NC(=O)CO4)csc2=Nc2cccc(C)c2)ccc1O,"inconclusive: 30.1 µM [inhibitor, partial curve, poor fit]",
CCOC(=O)c1c(C)oc2c1c1c(c3ccccc32)OCN(Cc2cccnc2)C1,active: 26.9 µM,
O=C1NC(c2ccccn2)Nc2sc3c(c21)CCC3 (stereo unspecified),"inconclusive: 16.9 µM [inhibitor, partial curve]",
O=C(Cn1sc2ccccc2c1=O)N1CCN(C(=O)c2ccco2)CC1,"inconclusive: 37.9 µM [inhibitor, partial curve, poor fit]",
Cc1cc(C)n(-c2ccc(C(C)C)cc2)c(=O)c1C#N,"inconclusive: 0.0169 µM [inhibitor, partial curve, poor fit]",
COC(=O)c1ccc(NCC(=O)c2ccccc2)cc1,active: 1.51 µM,
COc1ccc(C(=O)/C=C/c2ccc(OC)c(COc3ccccc3F)c2)cc1,"inconclusive: 26.9 µM [inhibitor, partial curve, poor fit]",
Cc1cc(C)nc(N/N=C/c2cccc(Cl)c2)n1,"inconclusive: 26.9 µM [inhibitor, partial curve]",
O=C(Cn1cnc2ccccc21)Nc1ccc2c(c1)OCCCO2,"inconclusive: 37.9 µM [inhibitor, single point]",
CCCC(=O)N1CCc2cc(-c3nc(N)sc3C)ccc21,active: 12 µM,
COc1ccc(CC(=O)NCc2ccc3c(c2)CCN3C(=O)c2ccc(Cl)cc2)cc1OC,,inactive: -19.2%
O=C(N/N=C/c1cccnc1)c1cc(-c2ccccc2OCc2ccccc2)n[nH]1,,inactive: -16.7%
